Drawing on a collection of fitness landscapes (doi:10.1126/science.1257360), this text covers enrichment ratio for 195 variants.

This is one part of the list.

The labels stand for the following.
B1: PhoQ; a variant is named by its letters at X, in order, P23837 (parent)
chain: MKKLLRLFFPLSLRVRFLLATAAVVLVLSLAYGMVALIGYSVSFDKTTFRLLRGESNLFYTLAKWENNKLHVELPENIDKQSPTMTLIYDENGQLLWAQRDVPWLMKMIQPDWLKSNGFHEIEADVNDTSLLLSGDHSIQQQLQEVREDDDDAEMTHSVAVNVYPATSRMPKLTIVVVDTIPVELKSSYMVWSWFIYVLSANLLLVIPLLWVAAWWSLRPIEALAKEVRELEEHNRELLNPATTRELTSLVRNLNRLLKSERERYDKYRTTLTDLTHSLKTPLXXLQXXLRSLRSEKMSVSDAEPVMLEQISRISQQIGYYLHRASMRGGTLLSRELHPVAPLLDNLTSALNKVYQRKGVNISLDISPEISFVGEQNDFVEVMGNVLDNACKYCLEFVEISARQTDEHLYIVVEDDGPGIPLSKREVIFDRGQRVDTLRPGQGVGLAVAREITEQYEGKIVAGESMLGGARMEVIFGRQHSAPKDE

In the experiment the parent is B1. The experiment can be described thus: enrichment ratio after two sorts for PhoP signalling (ratio (wild type AVST 3.29)); higher = more functional. Particulars: with PhoP (E. coli).
For the variant RFFH, the enrichment ratio is no more than 0.25.
As to VMCN, the enrichment ratio was no more than 0.25.
The same measure for NFDL: no more than 0.25; for IQTK: no more than 0.25; for VVPI: no more than 0.25.
As to LSTH, the enrichment ratio is no more than 0.25.
Next, VMDP: no more than 0.25.
Next, QVDY: 11.3; QAWE: no more than 0.25; YMVN: no more than 0.25.
Next, WCLA: no more than 0.25; GRIN: no more than 0.25.
Consider HIVW, for which the enrichment ratio is no more than 0.25.
As for VIGR, the enrichment ratio worked out at 0.325.
The same measure for FDLE: no more than 0.25.
Consider SGHW, for which the enrichment ratio was no more than 0.25.
The same measure for PFYT: no more than 0.25; for GAEP: no more than 0.25.
Next, KAHM: no more than 0.25.
As for LQDR, the enrichment ratio is no more than 0.25.
The same measure for WIFC: no more than 0.25.
The same measure for MHIH: no more than 0.25; for AHCN: no more than 0.25; for YSKA: 0.403.
Next, MSIT: no more than 0.25; DEWL: no more than 0.25.
As for IDGN, the enrichment ratio is no more than 0.25.
The same measure for DHFM: no more than 0.25; for MMPD: no more than 0.25.
Turning to IRDF, the enrichment ratio was no more than 0.25.
Next, PKWS: no more than 0.25; CAIN: no more than 0.25; SWPV: no more than 0.25.
Next, MTFT: 0.756.
As to VYPC, the enrichment ratio was no more than 0.25.
On to SRWH, for which the enrichment ratio is no more than 0.25.
Next, RETY: no more than 0.25; SYQL: no more than 0.25.
Next, IFVH: no more than 0.25; EPPN: no more than 0.25.
The same measure for WNNN: no more than 0.25.
On to WEPM, for which the enrichment ratio is no more than 0.25.
Next, VNMT: 3.14.
The same measure for NQRR: no more than 0.25; for KSYG: no more than 0.25.
Next, FIMY: no more than 0.25; HWHD: no more than 0.25; YTDG: no more than 0.25.
Turning to FKMW, the enrichment ratio was no more than 0.25.
Next, VCIN: no more than 0.25; RLVI: no more than 0.25; VFDM: no more than 0.25.
On to GLTG, for which the enrichment ratio is 1.09.
Next, FDGY: no more than 0.25; IFFI: no more than 0.25.
The same measure for LKGI: no more than 0.25.
The same measure for TRFH: no more than 0.25; for GRRS: no more than 0.25.
For IVHD, the enrichment ratio is no more than 0.25.
For the variant WLIS, the enrichment ratio is no more than 0.25.
Consider TMWY, for which the enrichment ratio was no more than 0.25.
Consider IGGR, for which the enrichment ratio is no more than 0.25.
The same measure for KYWD: no more than 0.25; for CAIT: no more than 0.25.
The same measure for LIWR: no more than 0.25; for APQI: no more than 0.25; for RPCG: no more than 0.25.
As to APQD, the enrichment ratio was no more than 0.25.
As for KKMS, the enrichment ratio was no more than 0.25.
Next, LVCQ: no more than 0.25; LTYP: no more than 0.25; NWRY: no more than 0.25.
Next, ERTM: no more than 0.25.
The same measure for IYIE: no more than 0.25; for EANF: no more than 0.25.
Regarding PLCN, the enrichment ratio is no more than 0.25.
The same measure for GHFE: no more than 0.25.
The same measure for AKMF: no more than 0.25.
Next, TNVN: 0.832.
In the case of VKTQ, the enrichment ratio was no more than 0.25.
Next, VKRV: no more than 0.25.
Regarding FGRW, the enrichment ratio was no more than 0.25.
Next, PRCP: no more than 0.25; VNMP: no more than 0.25; ASYA: no more than 0.25.
The same measure for YKTV: no more than 0.25; for MIAD: no more than 0.25.
The same measure for VALK: no more than 0.25; for FNLA: no more than 0.25; for NHFE: no more than 0.25.
For DCYC, the enrichment ratio was no more than 0.25.
The same measure for KFFL: no more than 0.25.
The same measure for IIGH: no more than 0.25.
In the case of LGPY, the enrichment ratio is no more than 0.25.
Consider RMVL, for which the enrichment ratio was no more than 0.25.
Next, YHLA: no more than 0.25; SLQQ: no more than 0.25.
The same measure for WDMS: no more than 0.25; for RDNP: no more than 0.25; for IIDD: no more than 0.25.
Next, PGRN: no more than 0.25.
In the case of YPLT, the enrichment ratio is no more than 0.25.
Next, NVVL: no more than 0.25; ISNN: no more than 0.25; QYYN: no more than 0.25.
Next, SIWV: no more than 0.25.
The same measure for YHEM: no more than 0.25.
As for SYYI, the enrichment ratio is no more than 0.25.
The same measure for NHKY: no more than 0.25.
Regarding YNGV, the enrichment ratio is no more than 0.25.
Next, NASW: no more than 0.25; VYRP: no more than 0.25; GWCC: no more than 0.25.
Consider HCIH, for which the enrichment ratio is no more than 0.25.
The same measure for FGSD: no more than 0.25; for FRKW: no more than 0.25.
The same measure for NINS: no more than 0.25; for HWTW: no more than 0.25; for YECF: no more than 0.25.
The same measure for WFFN: no more than 0.25.
With SAGR, the enrichment ratio was no more than 0.25.
The same measure for MRAC: no more than 0.25; for NEVL: no more than 0.25.
Next, RRLA: no more than 0.25; YYCP: no more than 0.25; SKCA: 11.7.
Next, AQGH: 6.7.
Turning to AIWQ, the enrichment ratio amounted to 4.28.
Next, KHFP: no more than 0.25; IFYS: no more than 0.25; HFWC: no more than 0.25.
The same measure for QWGH: no more than 0.25; for VWSI: no more than 0.25.
Next, SSDE: no more than 0.25; RWIK: no more than 0.25; NKCP: no more than 0.25.
Consider WENL, for which the enrichment ratio is no more than 0.25.
In the case of KGMQ, the enrichment ratio is no more than 0.25.
On to WSMD, for which the enrichment ratio is no more than 0.25.
Next, MKDK: no more than 0.25.
Next, HTFE: no more than 0.25; QCVL: no more than 0.25; IWQI: no more than 0.25.
Next, DANR: no more than 0.25.
Consider EQQM, for which the enrichment ratio was no more than 0.25.
The same measure for PWSP: no more than 0.25; for WFLS: no more than 0.25; for WCWF: no more than 0.25.
Next, GRAY: no more than 0.25; TSMQ: 13.9; QHAN: no more than 0.25.
Next, IPYG: no more than 0.25.
For RCNQ, the enrichment ratio was 1.27.
Next, QREQ: no more than 0.25; VIYS: no more than 0.25; MVTN: no more than 0.25.
Regarding SNHA, the enrichment ratio is no more than 0.25.
Consider IPTD, for which the enrichment ratio is no more than 0.25.
For the variant AGEW, the enrichment ratio is no more than 0.25.
Consider NQYW, for which the enrichment ratio was no more than 0.25.
With GPGL, the enrichment ratio is no more than 0.25.
Next, EKEM: no more than 0.25; PYRG: no more than 0.25; TMDM: 6.03.
Regarding PEDW, the enrichment ratio is no more than 0.25.
With MDTG, the enrichment ratio is no more than 0.25.
The same measure for YWAA: no more than 0.25.
The same measure for KKAK: no more than 0.25.
The same measure for TPAT: no more than 0.25; for TSTG: 7.34; for KFET: no more than 0.25.
As for ACST, the enrichment ratio amounted to 8.79.
The same measure for SLTT: 2.35.
The same measure for GKEY: no more than 0.25; for SIHY: no more than 0.25.
Next, HELN: no more than 0.25; IHTW: no more than 0.25; NGQW: no more than 0.25.
On to IHWK, for which the enrichment ratio was no more than 0.25.
The same measure for AAFQ: no more than 0.25; for TQDS: no more than 0.25; for HQIG: no more than 0.25.
The same measure for RLMW: no more than 0.25; for RFCQ: 0.982; for YDIG: no more than 0.25.
Next, SYYG: no more than 0.25.
CAFR: the enrichment ratio is no more than 0.25.
On to MSLW, for which the enrichment ratio was no more than 0.25.
Next, DMSV: no more than 0.25.
Turning to ETNE, the enrichment ratio is no more than 0.25.
Next, CFLM: no more than 0.25; GGPH: no more than 0.25; IFAH: no more than 0.25.
The same measure for NQIL: no more than 0.25.
Next, AWAH: no more than 0.25.
